Data as given in PubChem BioAssay AID624417 (National Center for Advancing Translational Sciences (NCATS), 2012).
Screen size: about 410,000 compounds; about 6,400 (1.6%) were called active. The inconclusive results got no clear call from the source; some entries with a clear call stand among them for comparison. Calls follow the shape of the dose curve; as a rule, active = well fitted inhibition curve with a large enough effect; inconclusive = small, poorly fitted or top-dose-only effect; inactive = no such curve, though single readings can be large or run the other way. Potencies of inconclusive entries are left out as doubtful fits.
% is scaled to controls: 0 for no effect and ±100 for the full control effect; potency is read from the fitted curve at half-maximal effect; tags tell the direction and shape of the fitted curve.
Also: nearly all actives have a fitted effect of over 55% in size.

The compounds below were run against Glucagon-like peptide 1 receptor (Homo sapiens) (UniProt P43220) (assay: qHTS of GLP-1 Receptor Inverse Agonists (Inhibition Mode)). Conditions: HEK293 GLP-1R CRE-luciferase, luminescence, 24 h, GLP-1R form is constitutively active; activity change, negative = inhibition: at 38.3 µM (top of the series) unless noted.
Chain of UniProt P43220 (P43220 whole entry, looked up): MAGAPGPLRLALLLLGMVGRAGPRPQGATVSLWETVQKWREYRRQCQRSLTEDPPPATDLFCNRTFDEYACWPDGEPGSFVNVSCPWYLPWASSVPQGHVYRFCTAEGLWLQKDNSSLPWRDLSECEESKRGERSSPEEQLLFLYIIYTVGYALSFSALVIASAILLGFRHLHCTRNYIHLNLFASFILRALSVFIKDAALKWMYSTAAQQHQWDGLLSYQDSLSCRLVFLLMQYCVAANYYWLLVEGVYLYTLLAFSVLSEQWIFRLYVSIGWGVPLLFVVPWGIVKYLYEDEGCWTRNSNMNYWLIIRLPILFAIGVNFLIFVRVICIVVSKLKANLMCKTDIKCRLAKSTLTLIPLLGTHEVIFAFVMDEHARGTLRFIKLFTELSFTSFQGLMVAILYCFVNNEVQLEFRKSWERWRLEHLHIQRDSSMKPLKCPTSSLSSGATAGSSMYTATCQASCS
Procedure, shortened: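 Stable HEK293 clone (constitutively active GLP-1R + cAMP-response luciferase); 200 cells/uL plated, 12 h pre-culture, compound 24 hr, 37 deg C/5% CO2; detection reagent 12 min RT; luminescence.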
For `Cc1ccc2c(CNCc3ccc(C)o3)c(C(=O)O)n(Cc3ccc(F)cc3)c2c1`, the Potency was inconclusive [inhibitor, single point].
`COc1ccc(C(=O)Oc2c(Sc3ccc(C)cc3)c(C)nn2C(C)(C)C)cc1OC` was tested, and the Potency was inconclusive [inhibitor, partial curve, poor fit].
`COc1ccccc1NC(=O)Cn1c(=O)n(CC(=O)NCc2ccccc2Cl)c(=O)c2sccc21` was tested, and the Potency was “inactive”.
For `CCc1ccc(NC(=S)N(CCCN2CCN(C)CC2)Cc2cccs2)cc1`, the Potency was inconclusive [inhibitor, partial curve, poor fit].
In the case of `CCOC(=O)C1(CCOc2ccccc2)CCN(Cc2ccccc2O)CC1`, the Potency is reported as inconclusive [inhibitor, partial curve, poor fit].
In the case of `CC1CC1C(=O)Nc1nc2ccc(Cl)cc2s1` (stereo unspecified), the Potency is reported as inconclusive [inhibitor, partial curve, poor fit].
For `CCc1c(C)[nH]c2c1C(=O)C(CN1CCOCC1)CC2` (stereo unspecified), the Potency was “inactive”.
With `Cc1ccc(C(=O)NC2(C(F)(F)F)N=C(c3ccccc3)N(Cc3ccccc3)C2=O)cc1` (stereo unspecified) the Potency was inconclusive [inhibitor, single point].
`CCCc1nc2ccccc2c(C(=O)OC(C)C(=O)NCc2ccc3c(c2)OCO3)c1CC` (stereo unspecified) was tested, and the Potency was inconclusive [inhibitor, partial curve, poor fit].
For `CC(C)(C)c1cc(-c2nc(N)nc(N)n2)c(O)c(C(C)(C)C)c1`, the Potency was inconclusive [inhibitor, single point].
`Cc1ccc(S(=O)(=O)Nc2cc(C(=O)NCCN(C)C)ccc2N2CCCCC2)cc1` was tested, and the Potency was inconclusive [inhibitor, partial curve, poor fit].
`N#CC1=C(N)NC(SCc2ccccc2)=C(C#N)C12CCCC2` was tested, and the Potency was “inactive”.
In the case of `CN(C)CCn1c2c(c(SCC(=O)NCc3ccccc3)nc1=O)CCCC2`, the Potency is reported as inconclusive [inhibitor, single point].
In the case of `O=C(/C=C/c1ccccc1)NC(NC(=S)Nc1cccc(Cl)c1)C(Cl)(Cl)Cl` (stereo unspecified), the Potency is reported as inconclusive [inhibitor, full curve, poor fit].
`O=C1/C(=C/c2ccccc2O)SC(=S)N1Cc1cccnc1` was tested, and the Potency was inconclusive [inhibitor, single point].
`C=C(C)Cn1c(-c2ccc(OC)cc2)nc2ccccc21` was tested, and the Potency was inconclusive [inhibitor, single point].
In the case of `Nc1nnnn1/N=C/C(Br)=C/c1ccccc1`, the Potency is reported as inconclusive [inhibitor, full curve, poor fit].
`CCNC(=O)c1cc2c(=O)n3cccc(C)c3nc2n(Cc2ccc(C)cc2)c1=N` was tested, and the Potency was “inactive”.
In the case of `CC1CC1C(=O)Nc1ccc(-c2ccccc2)cc1` (stereo unspecified), the Potency is reported as inconclusive [inhibitor, single point].
`CC1(c2ccc(Cl)cc2)CC(C)(C)N(C(=O)c2cccc(F)c2)c2ccccc21` (stereo unspecified) was tested, and the Potency was inconclusive [inhibitor, single point].
For `CCC(=O)Nc1ccc(NC(=O)CN2CCCC(C)C2)c(Cl)c1` (stereo unspecified), the Potency was inconclusive [inhibitor, single point].
`CN(CC1CCN(CCc2cccc(C(F)(F)F)c2)CC1)C(=O)c1ccc(F)cc1F` was tested, and the Potency was inconclusive [inhibitor, single point].
With `O=C(NCCCN1CCOCC1)C(=O)NCC1OCCN1S(=O)(=O)c1ccc(Cl)cc1` (stereo unspecified) the Potency was inconclusive [inhibitor, single point].
With `O=C(NNC(=S)Nc1ccc(Cl)c(Cl)c1)c1ccccn1` the Potency was inconclusive [inhibitor, single point].
For `O=C(O)c1ccc(-c2ccc(/C=c3/sc4nc5ccccc5n4c3=O)o2)cc1Cl`, the Potency was “inactive”.
With `O=C(c1ccc(F)cc1)N1CCN(S(=O)(=O)c2ccc(Br)cc2)CC1` the Potency was inconclusive [inhibitor, partial curve, poor fit].
With `O=C1Nc2ccc(F)cc2C12Nc1ccccc1-c1nnc(SCc3ccccc3)nc1O2` (stereo unspecified) the Potency was inconclusive [inhibitor, full curve, poor fit].
In the case of `O=C1NN(c2ccccc2)C(=O)/C1=C/c1ccc(Sc2cccc3ccccc23)o1`, the Potency is reported as inconclusive [inhibitor, partial curve, poor fit].
With `COc1cc(C(=O)COC(=O)Cc2cnc3sccn23)cc(OC)c1OC` the Potency was “inactive”.
With `Cn1cc(/C=C/c2cc[n+](C)cc2)c2cc(F)ccc21` the activity change, negative = inhibition was inconclusive: -46.2% [inhibitor].
With `Cc1ccc(Cn2ccnc2SCC(=O)Nc2nnc(C)s2)cc1` the Potency was “inactive”.
In the case of `Cc1ccccc1OCCSc1nc2ccc(NC(=O)c3cccs3)cc2s1`, the Potency is reported as active: 12.6 µM.
In the case of `CC1CCN(C(C)C(=O)Nc2ccccc2-c2ccccc2)CC1` (stereo unspecified), the Potency is reported as inconclusive [inhibitor, partial curve, poor fit].
For `O=C1N/C(=C/c2ccc(N3CCOCC3)o2)C(=O)N1c1ccccc1`, the Potency was inconclusive [inhibitor, single point].
With `CCc1cccc(CC)c1NC(=O)CN1C2CCCC1CC(NC(=O)Nc1cccc(OC)c1)C2` (stereo unspecified) the Potency was inconclusive [inhibitor, partial curve, poor fit].
`O=C(COc1ccc(Br)cc1)N1CCN(c2ccc([N+](=O)[O-])c(N3CCCCC3)c2)CC1` was tested, and the Potency was inconclusive [inhibitor, single point].
With `COc1ccc(CCNC(=O)Cn2c(=O)n(-c3cc(F)ccc3F)c(=O)c3sccc32)cc1OC` the Potency was “inactive”.
`Cc1cccc2cc(/C=C3\N=C(c4ccccc4)OC3=O)c(N3CCOCC3)nc12` was tested, and the Potency was “inactive”.
With `O=C(NC1CCN(Cc2ccccc2)CC1)c1ccc(Cn2c(=O)c3ccccc3n(Cc3ccc(F)cc3)c2=O)cc1` the Potency was “inactive”.
`CC(C)(C)NC(=O)NC(=O)CSc1nnc(COc2ccccc2Cl)o1` was tested, and the Potency was inconclusive [inhibitor, single point].
`CCOC(=O)Cn1nc(Cc2ccccc2)c2ccccc2c1=O` was tested, and the Potency was inconclusive [inhibitor, single point].
